Assay results taken from patent US10363239B2, “Method for inhibiting growth of cancer cells” (Pain Therapeutics, Inc., priority 2013, dated 2019).

Tested on: MiaPaCa2 cell implants
Test: Xenograft survival study
Assay type: in vivo, Nu/Nu mice
Conditions: gemcitabine 50 mg/kg i.p. bi-weekly; n=8
Procedure: FIGS. 34A and 34B illustrate Kaplan-Meier survival curves (FIG. 34A) and averaged tumor volumes (FIG. 34B) in a xenograft study in which MiaPaCa2 cells were implanted in Nu/Nu mice. […] FIG. 34B illustrates average tumor volumes (mm3) in mice treated with vehicle alone (black diamonds), gemcitabine (open squares), Compound C0105 at 10 mg/kg (black triangles) and Compound C0105 at 100 mg/kg (open diamonds).
Mice were monitored individually and the treatment effect was compared to each mouse's own original tumor on the treatment day 0. The endpoint of the study was a tumor volume of 1500 mm^3 or 45 days, whichever comes first. The animals were euthanized when the endpoint was reached. Responders were followed longer (survival study). The Table below illustrates the drug treatment administered to the mice.
A third xenograft study was designed to measure survival rather than tumor volume at a designated time point.

In the case of `Nc1ccn([C@@H]2O[C@H](CO)[C@@H](O)C2(F)F)c(=O)n1` [gemcitabine, reference compound], the “Survival to 45 days without tumors reaching 1500 mm^3” value is reported as “two mice treated with gemcitabine reached 45 days”.
